Laboratory results as given in PMC10483596 (Proceedings of the National Academy of Sciences of the …, 2023).

Target: the molecule itself
Assay: SEC

B1: TRPV1-MBP fusion protein (maltose binding protein fused to the N terminus of TRPV1) (natural protein)
chain: MEQRASLDSEESESPPQENSCLDPPDRDPNCKPPPVKPHIFTTRSRTRLFGKGDSEEASPLDCPYEEGGLASCPIITVSSVLTIQRPGDGPASVRPSSQDSVSAGEKPPR[letters of about 250 residues left out]EPECRHLSRKFTEWAYGPVHSSLYDLSCIDTCEKNSVLEVIAYSSSETPNRHDMLLVEPLNRLLQDKWDRFVKRIFYFNFFVYCLYMIIFTAAAYYRPVEGLPPYKLKNTVGDYFRVTGEILSVSGGVYFFFRGIQYFLQRRPSLKSLFVDSYSEILFFVQSLFMLVSVVLYFSQRKEYVASMVFSLAMGWTNMLYYTRGFQQMGIYAVMIEKMILRDLCRFMFVYLVFLFGFSTAVVTLIEDGKNNSLPMESTPHKCRGSACKPGNSYNSLYSTCLELFKFTIGMGDLEFTENYDFKAVFIILLLAYVILTYILLLNMLIALMGETVNKIAQESKNIWKLQRAITILDTEKS[letters of about 120 residues left out]
  stoichiometry N: 4
